# Laboratory results reported in article PMC11444770, “Moesin contributes to heat shock gene response through direct binding to the Med15 subunit of the Mediator complex in the nucleus” (Open Biology, 2024).
# Sequences of proteins named here, by UniProt entry; tags and fusion partners are left off. A change or cut given only in a name is not applied to a line headed by its entry. Residues count along the entry.
# UniProt P46150: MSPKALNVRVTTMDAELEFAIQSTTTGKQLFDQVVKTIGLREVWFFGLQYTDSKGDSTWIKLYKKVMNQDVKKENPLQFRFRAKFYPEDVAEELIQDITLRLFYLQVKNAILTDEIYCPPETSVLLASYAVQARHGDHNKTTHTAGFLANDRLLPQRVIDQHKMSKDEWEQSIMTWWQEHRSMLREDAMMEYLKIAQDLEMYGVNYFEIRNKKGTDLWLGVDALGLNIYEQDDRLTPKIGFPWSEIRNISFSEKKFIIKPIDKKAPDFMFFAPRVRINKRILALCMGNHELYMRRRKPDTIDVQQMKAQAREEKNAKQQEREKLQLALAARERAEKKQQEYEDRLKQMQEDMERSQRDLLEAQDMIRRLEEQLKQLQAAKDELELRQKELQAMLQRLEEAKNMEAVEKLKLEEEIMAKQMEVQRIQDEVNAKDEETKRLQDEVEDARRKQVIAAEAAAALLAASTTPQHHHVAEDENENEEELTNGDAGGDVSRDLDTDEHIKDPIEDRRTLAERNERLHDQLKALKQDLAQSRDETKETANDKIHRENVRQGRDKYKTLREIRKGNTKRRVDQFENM
# GST-FERM-Moesin: residues 1-484 of P46150
# No constants are given. Whether binding was seen depends on the method and setting. In cells and extracts the contact can be indirect. Some binding calls cover weakened binding; strength is not graded here. For some assays here: Sequences can lack the tags named with a protein.
# B1: Med6-CYFP (protein, UniProt Q8MSX2 1-249)
# chain: MASRQMTNDHLRLSWHDTQMMATLSPQTVMDYFCRKSNPFYDHMCNNETVRMQRLGPEHLHNMIGLEYILLHVAEPILYVIRKQHRHNPSEATPIADYYIIGGTVYKAPDLANVINSRILNTVVNLQSAFEEASSYARYHPNKGYTWDFSSNKVFSDRSKSDKKDANSAKDENSGTLFQKQRVDMLLAELLRKFPPPIPPMLQNLQQPPPAGDDLNTARNASEMNNATGPLDIKTEGVDMKPPPEKKSK
# B2: Med11 (IVTT) (protein, UniProt Q9VVS4 1-176)
# chain: MNPLDKIHALDEIEKEIILCMQSAGQALQELGKEKSSQKNAETQSQQFLKSLSSVESKLSEQINYLTQVSTGQPHEGSGYASAKVLQMAWHRIQHARSRVRELEETKAKHSHAARQQLKRQQEHAAAQQQQQQQQQQQQQQQQMQQAAQQQQQQTGGGNAGSGDHPMGGDSSMSTN
# modifications: 35S-Methionine labelled
# B3: Med27 (IVTT) (protein, UniProt Q9VNG0 1-293)
# chain: MDKLNSTLTAVKNLRSNVRLCFEHLADGTDGESGEESRNKFVNDFQERFAAINSQIREVEQLINGLPVPPTPYSLGNTAYLAQETSQDRQALYPQLVNSYKWMDKVHDHSFLAFNNLNQNTLRRSYNYCSQKRQRLPFSSFNNDPDHIDKLLSEINTPPHTSYRIFRPFGTNAVTIVTISNVMKAAIVFKGVLIEWVTVKGFDEPLEHDDLWAESRYEVFRKVQDHAHSAMLHFFSPTLPDLAVKSYITWLNSHVKLFLEPCKRCGKFVVNGLPPTWRDLRTLEPFHEDCRNC
# modifications: 35S-Methionine labelled
# B4: Med17 (IVTT) (protein, UniProt Q9VEC1 1-642)
# chain: MSNSVNISVETTCENQIREIGYDGTELYQPPPTLSESLAKCAARIDFSKTSLDDLKKEEKSAAAAADEDKDATQFQESLWPWDAVRNKLKDALTEICVLSDVISIAKDKRYLVLDPLLEEADDTKPIVQVYSRKKAISQAAQVLLSGAERLRNAHSEQRNRNVSDFHIELLRLRQNWRLKKVSNAIIGDLSYRTAGSKFGMSGTFEVTKAEETGDEDTASSSNSSSSVSGNNGMQLKASSALRVIVPAELQGVAYIKVITQKDQEDLCTAQLNLMGHGPNITAQVGVWQKTLEFAQNVLFCKELFAQLAREAIQLQAPIPHVVIGNQIRATLLPNIQLIISLCHSTTFDSSQPAPINDHDHVLEHSLHQLLREVHYKNSHHPFPHPASAPLGPTKKRMLAGPMAADRETLLDMTKSQTILEQIIAQAQHIFMRKRTQYVLDTLARDVKDPQIVSHWNAMNSPTMSCVKINIVTHGYDAIGRTSLVIHVKERSLKCICRDGRVMRLSYEPQELRDLILCQINSHQISCLISLARCMSWTVLSNSNHLGIGKVEPLGNASSCLLASPNSDRMIAVQIRCDPQIDVKVYIARSPRQDFFPSPLVPEKLWENLGGTFKEVRFDKIEGKSFLNKMEFLMASLTSNTA
# modifications: 35S-Methionine labelled
# B5: Med8 (IVTT) (protein, UniProt A1ZBT5 1-252)
# chain: MQRDEKLFELTLDTVLQRLNDLKLAVLSMIQKLELEYETINWPTFLDNFAIISSHLTGLTKILAKEQCPPLRNRTVLPLLVSMDRDDTLINITEGRVPVFSHDIVPDYLRTRPDPITEQKMLQNEQKAANLTNDAAMKQVTQYNKVVSHVLDMVSKAREEWEIESSSRTGIQQTSSMADTQLLVAAVGMGKGLKLTNYGPGPGMMVPPSIRAPSPMGGPAMSPGNVQQQLGKAPSAVKTNIKSANQVHPFSR
# modifications: 35S-Methionine labelled
# B6: Med23 (IVTT) (protein, UniProt Q9W1X7 1-1439)
# chain: METQVIDTVNEFLKVDSLDEAFVSVIVFKPNTEQERATRFANDLVTAFGNVAQENREQVLRLYLLRAAGASGYHIKVLMAALVKLVDAHVITARMLCDKVLMCEKLDFEHRTFWIESFRLIKRVIVQVDYKGVREIMKVCRDKAQWFPLNVNVTYMPQLLAVEDILRFIFDRNNCLLPAYFIANEIMRPFPYHWKLNRLMTDFVEEFRTTAQMVSIIGHASMLPIVEHFGYADHMMNSWRLDHNTLKFNFKGSLPYEPELLEEQKPLLRYVLEQPYSREMVSQMLNLQKHQKQRYNALEEQLVNLIVQAMEMTEANDATAGSGFNSSDEQITPYEWMWLHLSSQLIYFVLFQFVSFMHIVLALHEKLSKLELRKGRDQLMWILLQFISGSIQKNPITNFLPVFRLFDLLYPELEPLKLPDINKSSMVRHMAPICVWIHLMKKARVENMNITRPLPIALKNHYDFLQHLVTANTMMNMTLGNDFRIILICNAYSTNQEYFGRPMGLLLDALNGTSKSPNGGQIPAVTFSVTVLDSLTVHSKMSLIHSFVTQMLKQAQSKGQVPAAALLETYARLLVYTEIESLGIKGFLSQLMPTVFKNHAWAMLHTLMEMFSYRLHHVPTHYRVQLLSLLHSLSSVPQTNKMQLNLCFESTALRLITSIGSAEFQPQFSRYFNDKSPGAVASNESEELNRVLILTLARSMHVHGGGDEMQGWCKDFLSNIIQHTPHSWPMHSLACFPPALNEYFTQNNQPPENKQQLKKAVEEEYRTWTSMTNENDIIAHFLRPTTNPLFLCLLFKIIWETENISPVAYKILEGISARALSTHLRKFCDYLVAEVASSSDGRDFIHKCVDTINNMIWKFNVVTIDRVVLCLALRTHEGNEAQVCFLIIQLLLLKASELRNRVQEFCKDNNPDHWKQSNWQDKHLSFHQKYPEKFALDESASQIPLPVYFSNVCLRFLPVLDVVVHRFIELTITNVHQILGFILDHLSILYKFHDRPITYLYNTLHYYERILRDRPALKKKLVGAITSAFSEIRPPNWSVSEPYKVYLQSQDSLWTPELSYYMSLIRRLADTISGKNVFYSTDWRFNEFPNAPTHALYVTCVELLGLPVAPPLVASNLIDVIVSGYAVIPQKDIHSYINAVGIVLAALPEPYWSGIYDRLQDMLNTPNMLNWTYRFNAFELFNFKTVREAMLEKTYAVVLAVAHSVFHHMGAFKLAAMTRYLKEKLKPCVRTEQQLLYLCHVFGPFLQRIELEKPNAVAGIAVLLYEILEIVDKHHGPKPLQYMDQICDFLYHIKYIHVGNIIKNESEAIIKRLRPLLQMRLRFITHLNLEDIHTEKINDNTSNNAITSQTQSPMQTQHQQQPQQPHQQQQQQQQQQQQQQQQQQQQQQMQQQQINAVQTTSVPLGSGGNLQQQQQINQQQQMYMQHMQQHQHMQNMRHN
# modifications: 35S-Methionine labelled
# B7: Med16 (IVTT) (protein, UniProt Q9W278 1-818)
# chain: MTILYKVEGKEFSKDSVFPHKKVLCSVSARNIVAFSALQSAIFPASHGGDAGDGSLPGAGLAVGASNSHVYVCDIVTPWEYYKVCSSKSLISVLQWSPNGEQLLLGYVGGRVEIWQPRNQSINLWVLQYYATVPSEDIIEAQFFQNGKGVIFNALKKDHTYYAEKFERVEQQRPTLSGFGGVASEGCVLLTSSGLLAAFSLPAIQKTSAAGADGPAHEVVELTPALHSIGISRSFIEHCSMTPSPSGALNIAFSCGWQQQLVQCFKVSLSLEGELGLEQHLAIKSESQTSIFLGPLDGRRISHLKWTRIANEDVIFIAYACPDGAGSQLEQWTLTRRHQSVHALLQGGGGANNKPNEFVQSESWEQVGKVQLNASLADISVTRLSVSTPDSCQVYAILQDNSVQVLEPNSMKQLNHTQFDRLSDASGAVKFVSGDLTPSSQILLIFDSHAQLYAMQAPLPKQGGSGLLLLEYCIVTGCDASDVLLLNLGNLEALVEKLTDNFTRQPSFVRHFYYANFLALKSNICRMQQQEFDNLIILHAISTTFKSLLRPSDLGFQDKGPADNLAIKLAESIPDVDTVMLNLDAKDFTVEPVMLQSLQQLIQWVTDLALNMLHRLPEEVMKTKLSGKRPSYDISRDIVAISSLRELLVMIRIWGLLNTQCLPVYTKTMDNIDVLVILFRLLTRLAQNPAEPDEMLLDECSLLSKQLLIPQPTKFNPTTLLSAQGFAAVKSGQLQFTSMEEPTCLQDMETEEVVFASSVKDGVSNLQLGARPSHIRRCARCGFVFVNNASKVAKTSALKAWFSKWLHCHCGGFWKQVH
# modifications: 35S-Methionine labelled
# B8: Med15 (IVTT) (protein, UniProt Q9Y149 1-749)
# chain: MTEDWQSQKFRQNVISKIHDLLPPNAQDQTKNAGVMENHIFRKSRTKDEYLGLVAKLFMHYKDMSRKSQQQQQQQQQQGGPPPNAEMGGGQNMMQDPLNALQNLASQGNRNPQMMPMGAGGGAPVPGGPGTASNLLQSLNQQRPGQQQMQPMSNIRGQMPMGAGGAGAQQMMQVQQMQQGGNAPGVMNVMGAGGGQNQGQIVGNPGQQMGVGVGMPNQMVGPGPNSGPAVGGAGGPNAAPGAGGPGPNQMQGGPMNVNAMQQMPPMQQIQQNQLGMGMNPMMRMGQGNGMGGPQGMPGQGMQGMPQGPHNVVGGPAGQQQVGGAGLPPNAVQQGGMNPMGGMGVNMPPNLQQKPNMPMGQAGQMFPGNRGGVGVGGQQPGQPFMRSSPSPADAQQLQQQAQLQQMQQQQQQLVVGNQTPTQQPPTPQMPTPNMIPSPALVPQSSPQMMQMQNSQRNIRQQSPSASINTPGQVTGNSPFNPQEEALYREKYKQLTKYIEPLKRMLAKISNDGTNVEKMTKMSKLLEILCNPTQRVPLETLLKCEKALEKMDLISYSGQQFGKSSNPLLEVINTTLQSPVANHTLYRTFRPTLELLFGTDITAPVPAKRPRVEEKSTSFEQEVPHVLQGEIARLDTKFKVKLDTTSQINNKAIRLICCLDDKRLPSVPPVSVSVPEEYPWQAPDCSLAEQEYSATPFLQTVQQALIARISKLPKNYSLSHLLDTWEMAVRQACSPQSKPRAVCELSTLLGV
# modifications: 35S-Methionine labelled
# B9: Med31 (IVTT) (protein, UniProt Q8IH24 1-204)
# chain: MAKMYGKGKTAIESEELQKRRWQIELEFVQCLSNPNYLNFLAQRGFFKDQSFINYLKYLQYWKEPDYAKYLMYPMCLYFLDLLQYEHFRREIVNSQCCKFIDDQAILQWQHYTRKRIKLIENVTAAQQQQQQLQQQQQQANGMEAATGGESAAPTPNVNGSASTADSQQTSSALQPVQAQPGNPQQQQQINGVASGANIKLELN
# modifications: 35S-Methionine labelled
# B10: Med6 (IVTT) (protein, UniProt Q8MSX2 1-249)
# chain: B1 chain
# modifications: 35S-Methionine labelled
# B11: Med22 (IVTT) (protein, UniProt Q9V439 1-143)
# chain: MASGSRTTILPQSKEALLKSYNARLKDDVRSMLENFEEILKLARRESHSQISKTTQCEQDALEMQVRAANMVRAGESLMKLVADLKQYLILNDFHSVNEAITNNSQLFRNTQSECDKKLMKLRDEMAMDLYDLEEEYYTSIFK
# modifications: 35S-Methionine labelled
# Target: Moesin-NYFP (Drosophila melanogaster) (UniProt P46150)
# Assay: split reporter; split YFP (BiFC) in living, unstressed S2R+ cells, 2 days after transfection; confocal microscopy, percent of YFP positive cells
row,binding,Binder
1,binds,B1

# Target: GST-FERM-Moesin (Drosophila melanogaster) (UniProt P46150)
# Assay: pull-down; GST-IVTT binding assay: GST-FERM-Moesin immobilised on glutathione beads, 35S-methionine-labelled IVTT preys; 50 mM Hepes pH 7.5, 150 mM NaCl, 2 mM MgCl2, 1 mM EGTA, 1 mM DTT, 0.1% Triton X-100, 0.5 mg/ml BSA; 1.5 h at 4°C; autoradiography; only the target purified
row,binding,Binder
1,no binding,B2
2,no binding,B3
3,binds,B4
4,no binding,B5
5,no binding,B6
6,no binding,B7
7,binds,B8
8,no binding,B9
9,no binding,B10
10,no binding,B11
